Measured values as given in ChEMBL document CHEMBL4888484, “Replenishing the malaria drug discovery pipeline: Screening and hit evaluation of the MMV Hit Generation Library 1 (HGL1) against asexual blood stage Plasmodium falciparum ,using a nano luciferase reporter read-out” (2022).
Among all 150,000 compounds or so, about 540 (0.36%) showed an effect of 50% or more. This is one part of the list.

tested on: Plasmodium falciparum; assay: Primary screen in NF54 nanoGlo assay, in single point, at 2uM, 72h; a lower Z score goes with more inhibition; format: functional, Erythrocyte; details: timepoint 72 hour

SMILES | % Inhibition [%] | Z score
Cc1cc(-c2ccc(-c3cnc(N)[nH]3)cc2)ccn1 | -1 | 0.12
CN1C(=O)c2ccc(NC(=O)c3ccnn3-c3ccccc3)cc2C1=O | -2 | 0.22
COc1ccc(CN2CCN(Cc3cnc(C)s3)C[C@@H]2CCO)c(F)c1 | -7 | 0.92
COc1ccccc1[C@@H]1CCCN1c1cccc(C(=O)O)n1 | -14 | 3.03
Cc1nnc(N(C)Cc2ccoc2C)c(C#N)c1C | -10 | 1.58
O=c1c2c(Cl)cccc2ncn1[C@H]1CCOC1 | -2 | 0.22
CCC(CC)CN(CCC#N)c1ncccn1 | -17 | 2.51
Cc1ccc2c(c1)NC(=O)c1cc(S(=O)(=O)N3CCC(C)CC3)c(N3CCCC3)cc1O2 | -14 | 1.99
Cc1c(CN2CCC[C@H](N(C)CCc3ccccn3)C2)[nH]c2c(C)cccc12 | -1 | 0.18
C[C@H](c1ccccc1)N(CC(N)=O)C(=O)c1cn2c(n1)CCC2 | 2 | -0.24
C[C@H](NCc1nnc(C2CC2)s1)c1c(F)cccc1Cl | -20 | 2
Cc1nc(NC(=O)COC[C@H]2CCCO2)sc1Br | -3 | 0.38
Cc1nn(C)c2nc(N(C)[C@H]3CCN(C)C3)sc12 | -3 | 0.62
O=C(CS(=O)(=O)Cc1cc(Cl)cc2c1OCOC2)N1CCC1 | -15 | 1.42
CCc1nnc(CNc2nc(C)nc3onc(C)c23)s1 | 5 | -1.04
Cc1cc(CNCCCN2CCN(C)CC2)ccc1Br | 10 | -1
COc1cc(N[C@H]2CC(C)(C)Cc3nc(N4CCC(O)CC4)ncc32)ncn1 | 12 | -1.68
COC(=O)CN(C)C(=O)CCN(C)Cc1ccc(Cl)cc1 | -13 | 1.64
CCc1nnc2n1CCN(Cc1nccn1CC(F)(F)F)C2 | -4 | 0.64
CN(C)[C@H]1CCN(C(=O)C2(N(C)CCc3ccccc3)Cc3ccccc3C2)C1 | -5 | 0.87
Nc1nnc(COc2ccc3ccccc3c2)o1 | 18 | -2.24
CCOC[C@H]1CN(Cc2c(C)nn(-c3ccccc3)c2C)CCO1 | 8 | -1.08
CC(C)c1ccccc1NC(=O)N(C)C | -7 | 1.14
CNC(=O)C1(C(=O)NC[C@H](c2ccccc2)C(C)C)CCC1 | -11 | 1.35
CN1CCC(N(Cc2ccco2)C(=O)NCc2ccco2)CC1 | -3 | 0.4
O=C(c1ccncc1)N1C[C@@H]2OCC(=O)N(Cc3cccnc3)[C@@H]2C1 | -9 | 1.44
CC(=O)N1CCCN(C(=O)CCCc2nc(C(C)(C)C)no2)CC1 | -13 | 1.37
O=C(Nc1ccccc1)c1cccc(CN2CCCCCC2)c1 | -29 | 3.45

SMILES | % Inhibition [%] | Z score
CS(=O)(=O)c1ccc(CN2CC[C@H](c3nc4ncccc4[nH]3)C2)cc1 | -4 | 0.59
CN(Cc1ccsc1)C[C@](C)(O)c1ccc(S(C)(=O)=O)cc1 | -7 | 0.92
Cc1cnc(C(=O)N[C@H]2c3ccccc3C[C@@H]2O)cc1C | 0 | 0.01
CCCCOc1ccc(-c2cc3c4nnc(CCC(=O)N5CCCC5)n4ccn3n2)cc1 | -6 | 0.87
C[C@H](NC(=O)C1CCN(S(=O)(=O)c2ccc(N3CCCC3=O)cc2)CC1)C(=O)N1CCCC1 | -15 | 1.74
CC(C)(C)OC(=O)N1CC(CNC2(c3ncon3)CCC2)C1 | 9 | -1.69
O=C(NCCC1CCS(=O)(=O)CC1)c1cc(F)c[nH]1 | -2 | 0.39
COc1ccc(CNC(=O)c2cc(-c3ccc(OC)c(OC)c3)nc3n[nH]c(-c4ccc(Cl)cc4)c23)cc1 | -5 | 0.81
CCN(c1ccc(OC)cc1)S(=O)(=O)c1cccc(-c2nc(-c3ccc(C)cc3)no2)c1 | -15 | 2.2
COc1cc(C#N)ccc1CN1CC[C@H]1c1ccc(Cl)cc1 | -8 | 0.96
CN1CCOC(C(NCc2ccccn2)c2ccc(Cl)cc2)C1 (stereo not given) | 4 | -0.36
CC(C)c1cc(C(=O)N2CCCC[C@H]2c2nc(-c3ccccc3)c[nH]2)n(C)n1 | -17 | 2.09
CCC1=C(C(=O)Nc2nnc(CC)s2)CCCO1 | -11 | 1.14
COc1cc(NC(=O)N(CCN(C)C)CC(C)C)cc(OC)c1 | -12 | 1.47
N[C@H]1CCCC[C@H]1c1nc(COc2ccc(F)c(Cl)c2)no1 | 5 | -0.89
N#Cc1c(-c2ccccc2)cc(-c2ccccc2)nc1S(=O)(=O)Cc1ccccc1 | 37 | -6.32
Cc1c[nH]c(CN(C)C(=O)Nc2cccc(N3C(=O)CC[C@@H]3C)c2)n1 | 0 | 0.03
FC(F)(F)c1cccc(N2CCN(c3ncnc4onc(-c5ccc(Cl)cc5)c34)CC2)c1 | -7 | 1.08
NC(=O)[C@@H]1CN(Cc2ncc(C(F)(F)F)s2)CCO1 | -12 | 1.56
Cn1c(N2CCNCC2)nc2c1c(=O)n(CC(=O)c1ccccc1)c(=O)n2C | 8 | -1.02
O=C(NCCN1CCCCC1)[C@H]1CCc2ncc(-c3ccc(F)cc3)n2C1 | 0 | 0.06
CCc1cnccc1C(=O)N1CCC(OCCCO)CC1 | 16 | -2.99
CC1CC(N2CCCc3ccccc32)C(=O)O1 (stereo not given) | -13 | 1.38
CCCNS(=O)(=O)c1cc(C(=O)NCc2ccco2)ccc1N1CCCC1 | -22 | 2.62
CCCCc1cc(C[C@@H]2C[C@H](NC(=O)C3CCCC3)C2(C)C)no1 | -5 | 0.88
COc1ccc(CC(=O)NCc2cccn2C)cc1 | -4 | 0.47
NC(=O)C1CCN(C(=O)C2(Cc3ccccc3)CC3CCC2C3)C1 (stereo not given) | -2 | 0.31
